Assay results reported in PubChem BioAssay AID1865 (National Center for Advancing Translational Sciences (NCATS), 2009).
About 540 (0.19%) of roughly 280,000 compounds were called active. Inconclusive means that the source gave no clear call. Such entries were picked first, then a sample of the others. Calls come from the whole dose curve; as a rule, active = well fitted activation curve with a large enough effect; inconclusive = small, poorly fitted or top-dose-only effect; inactive = flat fitted curve, though single readings scatter. Where the call is inconclusive, the potency comes from a doubtful curve fit.

assay: Quantitative High-Throughput Screen for Regulators of Epigenetic Control; details: murine LDR cells, GFP reporter derepression, 30 h; GFP activation: at 53.9 µM (top of the series); note: nearly all actives have a fitted effect of over 60% in size; for GFP activation: % of control where 0% means no effect
Outline: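 In this reporter-derepression format, murine cells bearing a silenced integrated CMV-GFP locus incubate with test compound (30 h, 37 C), then are washed and imaged; fluorescent objects of 20–120 um count as induced cells.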
Potency is the fitted concentration of half-maximal effect; tags give direction and shape of the fitted curve.

SMILES | Potency | GFP activation
Cc1cc(C)c(S(=O)(=O)Nc2cc(Cl)c3oc4c(c3c2)C(=O)CCC4)cc1C | inconclusive: 10 µM [activator, partial curve] | –
CN1/C(=C\C=C(/C#N)C(=O)Nc2ccccc2F)C(C)(C)c2ccccc21 | inconclusive: 28.2 µM [activator, single point] | –
COc1cccc2c1C(=O)c1c(O)c3c(c(O)c1C2=O)C[C@](O)(C(C)=O)C[C@H]3O[C@@H]1C[C@H](N)[C@H](O)[C@H](C)O1 | inconclusive: 2.82 µM [activator, single point] | –
COc1ccccc1C(=O)Nc1nc2cc3c(cc2s1)OCO3 | – | inactive: -1.02%
COc1ccc(S(=O)(=O)N2CCN(c3ccccc3)CC2)cc1-c1noc(C)n1 | inconclusive: 35.5 µM [activator, single point] | –
CCc1nnc(NC(=O)CCC(=O)N2CCN(c3ccccn3)CC2)s1 | – | inactive: 0.269%
O=C(Nc1ccccc1)c1snc2c(=O)[nH]cnc12 | – | inactive: -1.06%
CN(C)c1cc(C(F)(F)F)nc(-c2ccccn2)n1 | – | inactive: 0%
Nc1c(C(=O)c2ccccc2)sc2nsc(SCCN3CCOCC3)c12 | inconclusive: 12.6 µM [activator, partial curve] | –
Cc1ccc2nc(-c3ccc(-c4ccccn4)s3)cn2c1 | – | inactive: 0.0473%
O=C(NCC1CCCO1)c1ccc(COc2ccc(Br)cc2)cc1 (stereo unspecified) | inconclusive: 25.1 µM [activator, single point] | –
Cc1ccccc1NC(=O)COC(=O)c1ccc(S(C)(=O)=O)c([N+](=O)[O-])c1 | inconclusive: 3.16 µM [activator, single point] | –
COc1ccccc1N1CCN(/N=C/c2ccc(O)c(O)c2)CC1 | – | inactive: 3.11%
Cc1ccc(-n2nnc(-c3nc(-c4cccs4)no3)c2N)cc1C | – | inactive: 4.02%
Cc1ccc(-c2csc3nc[nH]c(=S)c23)cc1C | inconclusive: 35.5 µM [activator, single point] | –
Cc1ccc(/C=N/n2c(-c3ccncc3)n[nH]c2=S)cc1 | – | inactive: 0%
Cc1ccc(/C=C2/NC(=O)N(Cc3ccccc3F)C2=O)o1 | inconclusive: 28.2 µM [activator, single point] | –
C[C@@H](C(=O)N[C@@H](CO)Cc1ccccc1)[C@H]1C[C@]1(C)[C@H](NC(=O)OCc1ccccc1)c1ccccc1 | – | inactive: -0.933%
CC1(C)CC(=O)C(N=Nc2cccnc2)=C(O)C1 | inconclusive: 35.5 µM [activator, single point] | –
Fc1ccc(C2NC(=S)NC3=C2N2CCC3CC2)cc1 (stereo unspecified) | – | inactive: -4.09%
COc1ccccc1C(=O)NNC(=O)c1nn(Cc2ccccc2)c(=O)c2ccccc12 | inconclusive: 25.1 µM [activator, single point] | –
